{"source": "patent US12583836B2", "about": "(Anaxis Pharma Pty Ltd, priority 2020, dated 2026)", "key": {"[1]": {"biological_target": "T1, RIP3 (Homo sapiens, UniProt Q9Y572)", "T1 construct": "purchased DiscoverX (KINOMEscan service); host or cells: E. coli BL21-derived (T7 phage) or HEK293", "T1 sequence (Q9Y572 whole entry)": "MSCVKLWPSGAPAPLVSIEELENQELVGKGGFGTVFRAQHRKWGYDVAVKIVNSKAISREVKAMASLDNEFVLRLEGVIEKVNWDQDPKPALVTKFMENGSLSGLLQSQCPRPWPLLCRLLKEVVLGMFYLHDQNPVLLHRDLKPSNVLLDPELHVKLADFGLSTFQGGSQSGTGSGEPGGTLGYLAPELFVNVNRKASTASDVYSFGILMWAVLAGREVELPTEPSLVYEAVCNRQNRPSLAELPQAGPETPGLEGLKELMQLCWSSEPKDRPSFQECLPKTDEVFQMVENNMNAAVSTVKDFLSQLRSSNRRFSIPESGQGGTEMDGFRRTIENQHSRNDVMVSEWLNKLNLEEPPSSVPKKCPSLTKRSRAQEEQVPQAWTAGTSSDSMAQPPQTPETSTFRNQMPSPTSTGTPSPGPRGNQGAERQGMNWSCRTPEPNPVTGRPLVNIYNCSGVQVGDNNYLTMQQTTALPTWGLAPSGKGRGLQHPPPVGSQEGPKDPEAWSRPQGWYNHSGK", "assay": "KINOMEscan binding assay, RIP3", "conditions": "equilibrium dissociation constant, class symbols", "from_the_text": "The Hill Slope was set to −1."}, "[2]": {"biological_target": "T2, RIP1 (Homo sapiens, UniProt Q13546)", "T2 construct": "purchased DiscoverX (KINOMEscan service); host or cells: E. coli BL21-derived (T7 phage) or HEK293", "T2 sequence (Q13546 1-671)": "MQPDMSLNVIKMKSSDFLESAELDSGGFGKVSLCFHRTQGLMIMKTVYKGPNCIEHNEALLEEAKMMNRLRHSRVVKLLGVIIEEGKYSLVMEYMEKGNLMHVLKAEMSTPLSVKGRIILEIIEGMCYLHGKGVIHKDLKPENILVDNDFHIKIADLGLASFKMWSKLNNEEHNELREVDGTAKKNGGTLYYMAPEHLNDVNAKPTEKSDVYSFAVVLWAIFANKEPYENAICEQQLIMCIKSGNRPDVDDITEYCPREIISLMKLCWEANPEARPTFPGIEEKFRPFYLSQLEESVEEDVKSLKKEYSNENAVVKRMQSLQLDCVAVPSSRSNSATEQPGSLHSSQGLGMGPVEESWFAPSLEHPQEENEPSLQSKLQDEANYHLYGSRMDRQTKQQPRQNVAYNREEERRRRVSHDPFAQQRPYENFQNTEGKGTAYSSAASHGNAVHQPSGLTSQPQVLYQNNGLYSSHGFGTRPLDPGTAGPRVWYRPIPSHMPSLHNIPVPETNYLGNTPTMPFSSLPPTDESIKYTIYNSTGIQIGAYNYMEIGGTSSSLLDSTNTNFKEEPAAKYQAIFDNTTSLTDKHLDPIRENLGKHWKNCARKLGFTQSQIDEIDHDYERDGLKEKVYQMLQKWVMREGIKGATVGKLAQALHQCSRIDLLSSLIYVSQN", "assay": "KINOMEscan binding assay, RIP1", "conditions": "equilibrium dissociation constant, class symbols"}}}
{"smiles": "Cc1cnc(Nc2[nH]nc(-c3ccc(NS(=O)(=O)C(F)F)c(OCc4ccc(F)c(F)c4)c3)c2C(N)=O)cn1", "note": "[Compound 291, 3-(3-((3,4-difluorobenzyl)oxy)-4-((difluoromethyl)sulfonamido)phenyl)-5-((5-methylpyrazin-2-yl)amino)-1H-pyrazole-4-carboxamide]", "values": [{"measurement": "Kd", "setting": "[1]", "result": "> 30", "unit": "µM"}, {"measurement": "Kd", "setting": "[2]", "result": "> 30", "unit": "µM"}]}
{"smiles": "C[C@H](Oc1cc(-c2n[nH]c(Nc3cc(C4CCOCC4)on3)c2C(N)=O)ccc1NS(=O)(=O)C(F)F)c1ccc(F)cc1", "note": "[Compound 303, (S)-3-(4-((difluoromethyl)sulfonamido)-3-(1-(4-fluorophenyl)ethoxy)phenyl)-5-((5-(tetrahydro-2H-pyran-4-yl)isoxazol-3-yl)amino)-1H-pyrazole-4-carboxamide]", "values": [{"measurement": "Kd", "setting": "[1]", "result": "> 30", "unit": "µM"}, {"measurement": "Kd", "setting": "[2]", "result": "> 30", "unit": "µM"}]}
{"smiles": "C[C@H](Oc1cc(-c2n[nH]c(Nc3cnn(C4CCOCC4)c3)c2C(N)=O)ccc1NS(=O)(=O)C(F)F)c1ccc(F)cc1", "note": "[Compound 306, (S)-3-(4-((difluoromethyl)sulfonamido)-3-(1-(4-fluorophenyl)ethoxy)phenyl)-5-((1-(tetrahydro-2H-pyran-4-yl)-1H-pyrazol-4-yl)amino)-1H-pyrazole-4-carboxamide]", "values": [{"measurement": "Kd", "setting": "[1]", "result": "> 30", "unit": "µM"}, {"measurement": "Kd", "setting": "[2]", "result": "> 30", "unit": "µM"}]}
